Measured values from patent US20250129053A1, “HERBICIDAL IMIDAZOLE COMPOUNDS” (SYNGENTA CROP PROTECTION AG, priority 2021, published 2025).
At least one read-out could not be matched to a standard name with certainty.

Columns and labels:
Assay type in all cases: in vivo
Details in all cases: 250 g/ha, evaluated after 13 days, five-point scale
[1] = test system: Amaranthus palmeri (AMAPA); experiment: Pre-emergence herbicidal glasshouse test
[2] = test system: Ipomoea hederacea (IPOHE); experiment: Pre-emergence herbicidal glasshouse test
[3] = test system: Amaranthus palmeri (AMAPA); experiment: Post-emergence herbicidal glasshouse test
[4] = test system: Echinochloa crus-galli (ECHCG); experiment: Post-emergence herbicidal glasshouse test
[5] = test system: Echinochloa crus-galli (ECHCG); experiment: Pre-emergence herbicidal glasshouse test
[6] = test system: Amaranthus retroflexus (AMARE); experiment: Pre-emergence herbicidal glasshouse test
Setaria faberi (SETFA) [7] = experiment: Pre-emergence herbicidal glasshouse test
[8] = test system: Amaranthus retroflexus (AMARE); experiment: Post-emergence herbicidal glasshouse test
[9] = test system: Ipomoea hederacea (IPOHE); experiment: Post-emergence herbicidal glasshouse test
Setaria faberi (SETFA) [10] = experiment: Post-emergence herbicidal glasshouse test

| Compound | percentage damage caused to the plant, AMAPA [1] | percentage damage caused to the plant, IPOHE [2] | percentage damage caused to the plant, AMAPA [3] | percentage damage caused to the plant, ECHCG [4] | percentage damage caused to the plant, ECHCG [5] | percentage damage caused to the plant, AMARE [6] | percentage damage caused to the plant, SETFA (Setaria faberi (SETFA) [7]) | percentage damage caused to the plant, AMARE [8] | percentage damage caused to the plant, IPOHE [9] | percentage damage caused to the plant, SETFA (Setaria faberi (SETFA) [10]) |
| --- | --- | --- | --- | --- | --- | --- | --- | --- | --- | --- |
| FC(F)(F)c1nc(-c2ccc(Cl)nc2)n(Cc2ncc(Cl)cn2)c1Cl [Compound 1.055] | 5 (5=81-100%) | 5 (5=81-100%) | 5 (5=81-100%) | 5 (5=81-100%) | 5 (5=81-100%) | 5 (5=81-100%) | 5 (5=81-100%) | 5 (5=81-100%) | 4 (4=61-80%) | 5 (5=81-100%) |
| COc1ccc(-c2nc(C(F)(F)F)cn2Cc2ncc(Cl)cn2)cn1 [Compound 1.054] | 5 (5=81-100%) | 5 (5=81-100%) | 5 (5=81-100%) | 5 (5=81-100%) | 5 (5=81-100%) | 5 (5=81-100%) | 5 (5=81-100%) | 5 (5=81-100%) | 3 (3=41-60%) | 5 (5=81-100%) |
| FC(F)(F)c1cn(Cc2ncc(Cl)cn2)c(-c2cnc(C(F)(F)F)nc2)n1 [Compound 1.003] | 5 (5=81-100%) | 5 (5=81-100%) | 5 (5=81-100%) | 5 (5=81-100%) | 5 (5=81-100%) | 5 (5=81-100%) | 5 (5=81-100%) | 5 (5=81-100%) | 4 (4=61-80%) | 5 (5=81-100%) |
| FC(F)(F)c1ccc(-c2nc(C(F)(F)F)cn2Cc2ncc(Cl)cn2)cn1 [Compound 1.005] | 5 (5=81-100%) | 5 (5=81-100%) | 5 (5=81-100%) | 5 (5=81-100%) | 5 (5=81-100%) | 5 (5=81-100%) | 5 (5=81-100%) | 5 (5=81-100%) | 5 (5=81-100%) | 5 (5=81-100%) |
| N#Cc1cnc(-c2ccc(C(F)(F)F)cc2)n1Cc1ncc(Cl)cn1 [Compound 1.074] | 1 (1=0-20%) | 1 (1=0-20%) | 2 (2=21-40%) | 1 (1=0-20%) | 1 (1=0-20%) | 1 (1=0-20%) | 1 (1=0-20%) | 1 (1=0-20%) | 2 (2=21-40%) | 1 (1=0-20%) |
| FC(F)(F)c1ccc(-c2nc(C(F)(F)F)cn2Cc2ncccn2)cc1 [Compound 1.011] | 5 (5=81-100%) | 5 (5=81-100%) | 5 (5=81-100%) | 5 (5=81-100%) | 5 (5=81-100%) | 5 (5=81-100%) | 5 (5=81-100%) | 5 (5=81-100%) | 4 (4=61-80%) | 5 (5=81-100%) |
| FC(F)(F)c1cn(Cc2ncc(Cl)cn2)c(-c2ccc(Br)cc2)n1 [Compound 1.059] | 5 (5=81-100%) | 4 (4=61-80%) | 5 (5=81-100%) | 4 (4=61-80%) | 5 (5=81-100%) | 5 (5=81-100%) | 5 (5=81-100%) | 5 (5=81-100%) | 3 (3=41-60%) | 5 (5=81-100%) |
| FC(F)(F)c1cn(Cc2ncc(Cl)cn2)c(-c2ccc(Cl)cc2)n1 [Compound 1.007] | 5 (5=81-100%) | 5 (5=81-100%) | 5 (5=81-100%) | 5 (5=81-100%) | 5 (5=81-100%) | 5 (5=81-100%) | 5 (5=81-100%) | 5 (5=81-100%) | 5 (5=81-100%) | 5 (5=81-100%) |
| N#Cc1ccc(-c2nc(C(F)(F)F)cn2Cc2ncc(Cl)cn2)cc1 [Compound 1.002] | 5 (5=81-100%) | 5 (5=81-100%) | 5 (5=81-100%) | 5 (5=81-100%) | 5 (5=81-100%) | 5 (5=81-100%) | 5 (5=81-100%) | 5 (5=81-100%) | 5 (5=81-100%) | 5 (5=81-100%) |
| Cc1cnc(Cn2cc(Br)nc2-c2ccc(C(F)(F)F)cc2)nc1 [Compound 1.060] | 5 (5=81-100%) | 4 (4=61-80%) | 5 (5=81-100%) | 5 (5=81-100%) | 5 (5=81-100%) | 5 (5=81-100%) | 5 (5=81-100%) | 5 (5=81-100%) | 3 (3=41-60%) | 5 (5=81-100%) |
| COc1cn(Cc2ncc(C)cn2)c(-c2ccc(C(F)(F)F)cc2)n1 [Compound 1.057] | 1 (1=0-20%) | 1 (1=0-20%) | 1 (1=0-20%) | 1 (1=0-20%) | 1 (1=0-20%) | 1 (1=0-20%) | 1 (1=0-20%) | 1 (1=0-20%) | 2 (2=21-40%) | 1 (1=0-20%) |
| CSc1ccc(-c2nc(C(F)(F)F)cn2Cc2ncc(Cl)cn2)cn1 [Compound 1.038] | 5 (5=81-100%) | 5 (5=81-100%) | 5 (5=81-100%) | 5 (5=81-100%) | 5 (5=81-100%) | 5 (5=81-100%) | 5 (5=81-100%) | 5 (5=81-100%) | 4 (4=61-80%) | 5 (5=81-100%) |
| Clc1ccc(-c2nc(Cl)c(Cl)n2Cc2ncc(Cl)cn2)cc1 [Compound 1.064] | 5 (5=81-100%) | 1 (1=0-20%) | 5 (5=81-100%) | 2 (2=21-40%) | 3 (3=41-60%) | 2 (2=21-40%) | 5 (5=81-100%) | 5 (5=81-100%) | 3 (3=41-60%) | 3 (3=41-60%) |
| FC(F)(F)c1cn(Cc2ncc(Cl)cn2)c(-c2ccc(Cl)nc2)n1 [Compound 1.004] | 5 (5=81-100%) | 5 (5=81-100%) | 5 (5=81-100%) | 5 (5=81-100%) | 5 (5=81-100%) | 5 (5=81-100%) | 5 (5=81-100%) | 5 (5=81-100%) | 5 (5=81-100%) | 5 (5=81-100%) |
| COC(=O)c1cn(Cc2ncc(Cl)cn2)c(-c2ccc(C(F)(F)F)cc2)n1 [Compound 1.061] | 3 (3=41-60%) | 2 (2=21-40%) | 4 (4=61-80%) | 1 (1=0-20%) | 1 (1=0-20%) | 5 (5=81-100%) | 1 (1=0-20%) | 4 (4=61-80%) | 1 (1=0-20%) | 1 (1=0-20%) |
